To fix the notation:
B1: LINE1-mini (parent)
chain: GGCAGAGCUCAACACAGCGUGGCAAAGUGGCUGUGGCUAGACUGCC

The source gives no read counts; variants with many changes may rest on few reads.

In the data set the parent is B1. As to the kind of experiment: self-cleavage, relative activity (ratio to wild type); higher = more cleavage; in vitro, sequencing; the parent is a self-cleaving ribozyme.
For the variant GGAACAGCUUGACACAGCGUGGUAAAGUGGCUGUGGCUAGACUGCC, the self-cleavage worked out at 0.02.

As for GGAAUAGCUCAACACAGCGUGGCACAGUGGCUGUGGCUAGACUGCC, the self-cleavage was determined as 0.26.

For the variant GGAAGAGCUCAACACAGCGUGGGAAAGUGGCUGUGGCCAGACUGCG, the self-cleavage came to 0.1.

On to GGAAGAGCUCAACACAGCGUGGUAAAGCGGAUGUGGCUAGACUGCC, for which the self-cleavage came to 0.14.

Regarding GGAAGAGCUCAACACAGAGUGGAAAAGUGGCUUUAGCUUGACUGCC, the self-cleavage came to 0.07.

GGAACAGCUCAACACAGCGUGGCAAAGUGGCUGAGGCUAUACUGCC: the self-cleavage came out at 0.05.

GGAAAAGCUUAACACAUCCUGGCAAAGUGGCUGUGGCUAUACUGCC: the self-cleavage worked out at 0.11.

In the case of GGAACAUCUCAACACAGCGUGGCAAAGGAGCUGUGGAUAGACUGCC, the self-cleavage was 0.2.

GGAAAAGCUCAACACACCGUGGCAAAGUGGCUGUCGCUAGCCUGCC: the self-cleavage stood at 0.25.

As to GGAAUAGCUCAACACAGCGUGGCAAAGUGGCUGUGGCUAGAUUGCC, the self-cleavage came to 0.17.

Regarding GGAAGAACUCAACAUGGCGUGGCGAACUGGCUGUGGCUAGACUGCC, the self-cleavage came to 0.18.

With GGAAGAGCUCAACACAGGGCGGCAAAGUGGCUGUGGCUAUACUGCC, the self-cleavage came to 0.07.

With GGAAGAGCUCAACACAGGGUAGCAAAGUGGCUGUGGCUAGACUGCC, the self-cleavage stood at 0.13.

Regarding GGAAGAGCUCAACAUAGCGUUGCAAAGUGGCUGUGGCUAUACUGCC, the self-cleavage is 0.07.

Regarding GGAAUAGCUCAACACAGCGUCGCAAAGUGGCUGUGGAUAGACUGCC, the self-cleavage came to 0.1.

As for GGAAGAGCUCAACAGAGCGUGGCAAAGUGUCUGUGGCUAGACUCCC, the self-cleavage came to 0.06.

As to GGAAGAGCUCAACACAGAGUGGCAAAGUGGCUGUGGCUAUACUGCC, the self-cleavage is 0.05.

For GGAAGAGCUCAACACAGUCUGGCAAAGCGGCUGUGGCUAGACUGUC, the self-cleavage came to 0.07.

Turning to GGAAGAGCUCAACACAGGGUGGCAAAGAGGCUGUGGCUAGACUGCC, the self-cleavage was 0.19.

On to GGAAGAGCUCAACAUAGCGUGGCAAAGUGGCUGUGGCUAGACUGCA, for which the self-cleavage turned out to be 0.34.

With GGAAUAGCUCAGCACAGCGUGGCAAAGUGGCUGUGGCUAGAAUGCC, the self-cleavage amounted to 0.05.

Regarding GGAAGAGCUCAACACAGCGUGGCAAAGUGGCUGUGGCUAGAGCGCC, the self-cleavage worked out at 0.02.

With GGAAUAGCUCAACACAGCGUGGCAAGGUGGCUGUGGCUAGACUGCC, the self-cleavage amounted to 0.22.

Consider GGAAGAGCUCAACACAGUAUGGCAAAGUGGCUGUGGCUAGACUGCC, for which the self-cleavage stood at 0.34.

Turning to GGAAGAGCUCAACAUAGCGUGGCAAAGUGGCUGUGGCUCGACUGCC, the self-cleavage was determined as 0.15.

Take GGAAGAGCUCAACAGAGCGUGGCAAAUUGGCUGUGGCUAGACUGCC: the self-cleavage turned out to be 0.08.

In the case of GGAACAGCUCAACACAGCGUGACAAAGUGGCUGUGGCUAGACUGCC, the self-cleavage stood at 0.25.

As to GGAAGAGCUCAACACAGCGUGGUAGAGUGGCUGUGGCUAGACUGCC, the self-cleavage came out at 1.32.

For GGAAGAGCUCAACACAGUGUGGCAAACUGGCUGUGUCUAGACUGCC, the self-cleavage was 1.34.

GGAAGAGCUCAACACAGCGUGGCAAAGUGGCUGUGGGUAGGCUGCC: the self-cleavage worked out at 0.18.

GGAAGAGCUCAACAUAGCCUGGCAAAGUGGCUGUGGCUAGACUGCC: the self-cleavage amounted to 0.24.

For the variant GGAAGAGCUCAACACAGAGUGGCAAAGUGGCUGUGGGGAGACGGAC, the self-cleavage is 0.02.

Turning to GGAAGAGCUCAACACAGGGUGGAAAAGUGGCUGUGGCUAGACUGCC, the self-cleavage came out at 0.67.

With GGAAAAGCUCAACACCGCGUGGCAAAAUGGCUGUGGCUAGACUUCC, the self-cleavage turned out to be 0.27.

Take GGAAGAGCUCAACACAGAGUGACAUCGUGGCUGGGGCUAAACUGCC: the self-cleavage came to 0.

For the variant GGAAUAGCUCAACACAGCGUGGCAAAGUGACUGUGGCUACACUGCC, the self-cleavage was 0.11.

Regarding GGAAGAGCUCAACACAGAGUGGCAAAGUGGCUGUUGGUAGACUGCC, the self-cleavage turned out to be 0.02.

Take GGAAUAGCUCAACACAGCGUGGCAAAGUGGCUGUGGCAAGACUGCC: the self-cleavage was 0.18.

GGAAGAACUCAAUACAGCGUGGCAAAGUGGCUGUGGCUAGACUGCC: the self-cleavage is 1.31.

In the case of GGAAGAGCUCAACACAGCGUGGUAUAGUGGCUGUGGUUAGACUGUC, the self-cleavage was determined as 0.07.

For GGAAGAGCUCAACACAGUGGGGCAGAGUGACUAUGGCUAGACUGGC, the self-cleavage is 0.02.

As for GGAAGAGCUCAACACAGAGAGGCAAAGUGGCUGUGGCUAGACUGCC, the self-cleavage was found to be 0.11.

On to GGAAGAGCUCAACACAGAGUGGCAAAGUAGCUGUGGCUAGACUGCC, for which the self-cleavage was 0.1.

As to GGAAGAGCUCAACACAGCGUGGCAAAGUGGCUGUGGCUAGAUUGCU, the self-cleavage was 0.14.

Turning to GGAAUAGCUAAACACAGCGUGGCAAAGUGGUUGUGGCUAGACUGCC, the self-cleavage is 0.02.

For GGAAAAGAUCAACACAGCGUGGCAAAGUGGCUGUGGCUAGACUGUC, the self-cleavage came to 0.34.

GGAAGAGCUCAACACAGCGUGGGAGGGUGGCUGUGGAUAGACUGCC: the self-cleavage amounted to 0.2.

On to GGAAGAGCUCAACACAGCGUGGCAAAGUGGAUGUGGCUAGACUGCU, for which the self-cleavage came out at 0.08.

As for GGAAUAGCUCAACACAGCGAGGCAAAGUUGCUGUGGUUAGACAGGC, the self-cleavage amounted to 0.02.

GGAAGAGCUCAACAGAGCGUGGCAAAGUGGCUGUCGCUAGACUGCC: the self-cleavage was determined as 0.06.

GGAAGAGCUCAACACAGAGUGGCAAAGUGGCUAUGGCUACACUGCC: the self-cleavage was determined as 0.09.

As for GGAAUAGCUCAACACAGCGUGGCAAGGUGGCUGUGGCUAGACUUCU, the self-cleavage was 0.13.

On to GGAACAGCUCAACACAGCGUGUCAAUGUGGUUGUGGCUAGACUGCC, for which the self-cleavage turned out to be 0.02.

Take GGAAGAGCUCAACACAGAGUUGCAAAAGGGCUAUGCCUAGACUGCC: the self-cleavage stood at 0.01.

As to GGAAGAGCUCAACACAGCGUGGCAAAGUGGCUGUGGUUAGACUGCA, the self-cleavage worked out at 0.2.

Take GGAACAGCUCAACACAGAGUGGCAAAGUGGCUGUGGCUAGCCUGCC: the self-cleavage is 0.08.

The record behind these values is the RNAGym collection of RNA variant scans (doi:10.7554/elife.90254).
